A collection of fitness landscapes (doi:10.1016/j.celrep.2020.107928)
In all, about 81,000 sequences were measured (“one-hybrid fitness for binding NBS DNA”: median about -0.1, highest 2% from about 0.36 on). This is one part of the list.

B1: Caulobacter ParB omega fusion; a variant is named by its letters at X, in order, B8GW30 (parent)
chain: MESVVVGEPGMSEGRRGLGRGLSALLGEVDAAPAQAPGEQLGGSREAPIEILQRNPDQPRRTFREEDLEDLSNSIREKGVLQPILVRPSPDTAGEYQIVAGERAWRAAQRAGLKTVPIMVRELDDLAVLEIGIIENVQRADLNVLEEALSYKVLMEKFERTQENIAQTIGKSXSHVANXMRLLXLPDEVQSYLVSGELTAXHARAIAAAADPVALAKQIIEGGLSVRETEALARKAPNLSAGKSKGGRPPRVKDTDTQALESDLSSVLGLDVSIDHRGSTGTLTITYATLEQLDDLCNRLTRGI

Variants of: B1
Test: one-hybrid fitness for binding NBS DNA (the Noc-binding site; scaled: cognate 1, non-cognate 0); higher = stronger binding
Settings: with NBS DNA site
Procedure, shortened: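 Caulobacter ParB libraries with four specificity codons randomised were screened by bacterial one-hybrid selection in the E. coli USO strain, using a HIS3 reporter whose site lies 19 bp from the promoter. Selection ran for 48 hours at 37°C on M9 lacking histidine, with 0.1 mM IPTG and 5 mM 3-AT. Plasmids were Illumina-sequenced before and after selection, three replicate libraries were pooled, and variants with under 10 reads were dropped. Fitness is the log change in each variant's read ratio to wild type, rescaled against the cognate and non-cognate sites.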

Variant | one-hybrid fitness for binding NBS DNA
TPWV | ≤ 0.2
QSLS | 0.263
RNKS | 0.489
LILI | ≤ 0.2
TKFL | ≤ 0.2
SFYT | ≤ 0.2
KKSV | ≤ 0.2
DQTP | ≤ 0.2
CVKL | ≤ 0.2
ASSH | ≤ 0.2
NQKG | ≤ 0.2
LIYY | ≤ 0.2
QKNY | 0.26
DYEI | ≤ 0.2
KADV | ≤ 0.2
PAGN | ≤ 0.2
PFHI | ≤ 0.2
QAKE | 0.256
ILDS | ≤ 0.2
RQLD | ≤ 0.2
NTCW | ≤ 0.2
SLYY | ≤ 0.2
GSGE | ≤ 0.2
QGRF | ≤ 0.2

Variant | one-hybrid fitness for binding NBS DNA
LIKI | ≤ 0.2
GYFG | ≤ 0.2
DPGV | ≤ 0.2
RIQC | ≤ 0.2
MLWM | ≤ 0.2
WMLG | ≤ 0.2
DQYS | ≤ 0.2
GSTW | ≤ 0.2
RSEE | ≤ 0.2
FCTG | ≤ 0.2
QDLW | ≤ 0.2
TDSV | ≤ 0.2
HNLN | ≤ 0.2
QTVW | ≤ 0.2
RWHK | ≤ 0.2
IDCI | ≤ 0.2
GRWG | ≤ 0.2
WKPG | ≤ 0.2
RKTY | 0.217
LCCF | ≤ 0.2
LRRD | ≤ 0.2
RSIG | ≤ 0.2
SCRT | ≤ 0.2
LRRR | 0.483

Variant | one-hybrid fitness for binding NBS DNA
CDVV | ≤ 0.2
PDAV | ≤ 0.2
CRAW | ≤ 0.2
VTAN | ≤ 0.2
ALAY | ≤ 0.2
FSPY | ≤ 0.2
VARR | ≤ 0.2
PEEM | ≤ 0.2
ATEM | ≤ 0.2
AIWV | ≤ 0.2
NGEY | ≤ 0.2
RNIY | ≤ 0.2
SPAC | ≤ 0.2
YCLC | ≤ 0.2
MVNF | ≤ 0.2
YGKV | ≤ 0.2
RLNL | ≤ 0.2
CTHE | ≤ 0.2
ALKS | ≤ 0.2
FAPI | ≤ 0.2
EGRL | ≤ 0.2
MQIV | ≤ 0.2
PDSW | ≤ 0.2
GGIC | ≤ 0.2

Variant | one-hybrid fitness for binding NBS DNA
PHAT | ≤ 0.2
FSHM | ≤ 0.2
YAPI | ≤ 0.2
QCKF | 0.387
LHTR | ≤ 0.2
RMIV | ≤ 0.2
AKYL | ≤ 0.2
AHRN | ≤ 0.2
IVNQ | ≤ 0.2
CNVE | ≤ 0.2
LVGV | ≤ 0.2
DADN | ≤ 0.2
GLTS | ≤ 0.2
QPDC | ≤ 0.2
KRLC | ≤ 0.2
KPVR | ≤ 0.2
SSTS | ≤ 0.2
PITY | ≤ 0.2
HKGL | ≤ 0.2
SSDF | ≤ 0.2
YARQ | ≤ 0.2
QHKC | 0.367
SCSE | ≤ 0.2
AIVI | ≤ 0.2

Variant | one-hybrid fitness for binding NBS DNA
TRIR | ≤ 0.2
LYNR | ≤ 0.2
TTMT | ≤ 0.2
DESV | ≤ 0.2
FTKR | 0.263
RYLW | ≤ 0.2
NTPY | ≤ 0.2
PVVT | ≤ 0.2
QSAE | ≤ 0.2
FIGR | ≤ 0.2
WSAT | ≤ 0.2
PFYD | ≤ 0.2
PDSY | ≤ 0.2
GKVW | ≤ 0.2
KPPL | ≤ 0.2
CQAW | ≤ 0.2
NAGP | ≤ 0.2
HCME | ≤ 0.2
SAWL | ≤ 0.2
LFEY | ≤ 0.2
RTDV | ≤ 0.2
TSDI | ≤ 0.2
SIHL | ≤ 0.2
QTAA | 0.44

Variant | one-hybrid fitness for binding NBS DNA
TNLP | ≤ 0.2
VSGS | ≤ 0.2
VGPR | ≤ 0.2
RKHV | ≤ 0.2
YCQT | ≤ 0.2
TRMD | ≤ 0.2
QAYV | ≤ 0.2
GLFR | ≤ 0.2
LYVQ | ≤ 0.2
IDYS | ≤ 0.2
PRIF | ≤ 0.2
RIKQ | ≤ 0.2
YNLW | ≤ 0.2
WGHV | ≤ 0.2
AISH | ≤ 0.2
LMSQ | ≤ 0.2
VEGS | ≤ 0.2
MQNA | ≤ 0.2
KLEF | ≤ 0.2
EGVT | ≤ 0.2
HTVN | ≤ 0.2
TSCM | ≤ 0.2
PCLA | ≤ 0.2
QPHI | ≤ 0.2

Variant | one-hybrid fitness for binding NBS DNA
AEYE | ≤ 0.2
FCSN | ≤ 0.2
RKKE | ≤ 0.2
ARER | ≤ 0.2
ILPL | ≤ 0.2
FWRR | 0.342
TSCK | ≤ 0.2
MSED | ≤ 0.2
QRQC | 0.362
CVHI | ≤ 0.2
GTRT | ≤ 0.2
VHGI | ≤ 0.2
DSSG | ≤ 0.2
MSTL | ≤ 0.2
HHKP | ≤ 0.2
YYKT | ≤ 0.2
FPRS | ≤ 0.2
NDKL | ≤ 0.2
WADS | ≤ 0.2
LINR | ≤ 0.2
HILV | ≤ 0.2
VGLM | ≤ 0.2
QYKR | 0.99
RMGL | ≤ 0.2

Variant | one-hybrid fitness for binding NBS DNA
TWKK | ≤ 0.2
RRGK | 0.215
TFVH | ≤ 0.2
PTHV | ≤ 0.2
DGMG | ≤ 0.2
IRSP | ≤ 0.2
PCTM | ≤ 0.2
TGEM | ≤ 0.2
TRNH | ≤ 0.2
NLKG | ≤ 0.2
PYCG | ≤ 0.2
VSSA | ≤ 0.2
RKKV | 0.277
SKIC | ≤ 0.2
YAHC | ≤ 0.2
EWVR | ≤ 0.2
QMSI | ≤ 0.2
SPNQ | ≤ 0.2
PWFF | ≤ 0.2
SVHK | ≤ 0.2
RILF | ≤ 0.2
GLDM | ≤ 0.2
HKLL | ≤ 0.2
YACS | ≤ 0.2

Variant | one-hybrid fitness for binding NBS DNA
EWPG | ≤ 0.2
CAAQ | ≤ 0.2
TSFG | ≤ 0.2
YPIW | ≤ 0.2
DEPI | ≤ 0.2
PQNT | ≤ 0.2
TESS | ≤ 0.2
RVQT | 0.438
PTIP | ≤ 0.2
QHQY | ≤ 0.2
SYEC | ≤ 0.2
SHDC | ≤ 0.2
LNAY | ≤ 0.2
HYLD | ≤ 0.2
KMLF | ≤ 0.2
TTKP | ≤ 0.2
DWSS | ≤ 0.2
HQAP | ≤ 0.2
KVTN | ≤ 0.2
GAQG | ≤ 0.2
SLLQ | ≤ 0.2
QCKV | 0.479
PSWE | ≤ 0.2
ETYG | ≤ 0.2

Variant | one-hybrid fitness for binding NBS DNA
TINS | ≤ 0.2
TCHN | ≤ 0.2
CIEG | ≤ 0.2
MVLG | ≤ 0.2
IDSV | ≤ 0.2
MHWG | ≤ 0.2
SHRR | ≤ 0.2
APTA | ≤ 0.2
SGPG | ≤ 0.2
FVYW | ≤ 0.2
HGNI | ≤ 0.2
DFGA | ≤ 0.2
DPVF | ≤ 0.2
SMPR | ≤ 0.2
WVWF | ≤ 0.2
RFYV | ≤ 0.2
FIHV | ≤ 0.2
KKQR | 0.281
VLQL | ≤ 0.2
IPAY | ≤ 0.2
RKHG | ≤ 0.2
LSVN | ≤ 0.2
KEWT | ≤ 0.2
TRKY | 0.278

Variant | one-hybrid fitness for binding NBS DNA
AHPG | ≤ 0.2
PKCK | ≤ 0.2
NTIY | ≤ 0.2
AWKR | ≤ 0.2
ESQM | ≤ 0.2
RQQS | 0.429
QYLG | ≤ 0.2
HDAR | ≤ 0.2
KYSA | ≤ 0.2
TCPY | ≤ 0.2
GYPS | ≤ 0.2
KRMI | ≤ 0.2
VFPC | ≤ 0.2
SLSI | ≤ 0.2
DVDS | ≤ 0.2
TQSC | ≤ 0.2
TPKP | ≤ 0.2
SYVT | ≤ 0.2
RMGT | 0.432
VLSV | ≤ 0.2
CNAS | ≤ 0.2
KSQS | ≤ 0.2
PFWV | ≤ 0.2
EFPM | ≤ 0.2

Variant | one-hybrid fitness for binding NBS DNA
QNKL | ≤ 0.2
TSKD | ≤ 0.2
YRHG | ≤ 0.2
QAWE | ≤ 0.2
GSVC | ≤ 0.2
RIYA | ≤ 0.2
PPSN | ≤ 0.2
PWQT | ≤ 0.2
PGAV | ≤ 0.2
LRIY | ≤ 0.2
FTSA | ≤ 0.2
MQSM | ≤ 0.2
SRVR | ≤ 0.2
QEYS | ≤ 0.2
FKVC | ≤ 0.2
RLCN | ≤ 0.2
MEGC | ≤ 0.2
ELTS | ≤ 0.2
KAWL | ≤ 0.2
HMSR | ≤ 0.2
KLWT | ≤ 0.2
ALSI | ≤ 0.2
ARSP | ≤ 0.2
NSPD | ≤ 0.2

Variant | one-hybrid fitness for binding NBS DNA
APCL | ≤ 0.2
RYDW | ≤ 0.2
IYYS | ≤ 0.2
AHSY | ≤ 0.2
NRPI | ≤ 0.2
CWMS | ≤ 0.2
QTRL | 0.406
TMLQ | ≤ 0.2
KDPN | ≤ 0.2
RHPF | ≤ 0.2
HDAT | ≤ 0.2
RTRM | 0.29
SYHF | ≤ 0.2
LQAV | ≤ 0.2
NHFP | ≤ 0.2
RRVI | ≤ 0.2
DCLG | ≤ 0.2
GPKE | ≤ 0.2
